# Experimental data: the BET-seq Pho4 binding data (Le et al. 2018)
# The other results are listed elsewhere or left out. Values were computed here from the reads of four pooled replicates and scatter widely.
# Molecular target: T1, Pho4 (S. cerevisiae) (UniProt P07270)
# T1 sequence: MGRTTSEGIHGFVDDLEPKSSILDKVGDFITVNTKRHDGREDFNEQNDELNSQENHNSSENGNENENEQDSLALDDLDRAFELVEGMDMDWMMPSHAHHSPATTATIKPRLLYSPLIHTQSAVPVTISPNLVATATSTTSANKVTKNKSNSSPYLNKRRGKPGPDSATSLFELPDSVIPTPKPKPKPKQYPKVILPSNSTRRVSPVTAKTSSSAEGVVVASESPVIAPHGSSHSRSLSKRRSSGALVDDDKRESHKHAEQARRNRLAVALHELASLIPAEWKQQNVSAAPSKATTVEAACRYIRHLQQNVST
# Assay: relative binding free energy (BET-seq); higher = weaker binding
# Settings: reference: library average
row,Sequence,relative binding free energy [kcal/mol]
1,ATTTTCACGTGCGGGT,0.33
2,ATTTTCACGTGACGGG,0.36
3,GACTTCACGTGTTGTA,0.26
4,AGGGTCACGTGGTAGC,0
5,GTATACACGTGCTGGG,-0.04
6,TGTGTCACGTGTCTTT,0.19
7,TTACGCACGTGTGGAT,-0.06
8,GGGAGCACGTGCTAGT,-0.22
9,TGCGGCACGTGAGTTG,0.12
10,TATGGCACGTGAATAG,0.01
11,AAGAGCACGTGGTATG,-0.06
12,GTTAACACGTGTAATT,0.14
13,TTTTGCACGTGTGTAA,0.15
14,GGGCGCACGTGATGCT,0.15
15,GAGGGCACGTGGGTCG,-0.06
16,TTTAGCACGTGGCGGA,-0.22
17,AGTATCACGTGTGTGC,0.23
18,GTTGCCACGTGTTATG,0.01
19,TAGTACACGTGTGGAT,0.08
20,CGGAACACGTGGGAGG,-0.07
21,CTTAGCACGTGATGGA,0.06
22,CGGGACACGTGGGTTG,-0.15
23,TGGGACACGTGGGAGA,-0.09
24,TGGACCACGTGTGTTT,0.05
25,GTATGCACGTGTGAGA,0.09
26,AGGTACACGTGACGTA,0.24

row,Sequence,relative binding free energy [kcal/mol]
1,TTCGTCACGTGAGGGC,0.27
2,TAGGTCACGTGGGTTT,0.04
3,GGGGACACGTGTGCCG,0
4,CCATTCACGTGGGGTG,0.13
5,TGCTACACGTGATGTG,0.1
6,TACTGCACGTGGTTTT,-0.16
7,CTGGGCACGTGTGGAG,-0.03
8,CGGGGCACGTGTTCGT,0.02
9,GGGAGCACGTGGATCG,0.02
10,CTTGACACGTGTGTGG,0.09
11,GTTGGCACGTGGGGCC,-0.15
12,GGTGTCACGTGATCTG,0.17
13,ATGCTCACGTGGGGGC,-0.07
14,TTTAACACGTGTGTTT,0.01
15,TGACGCACGTGAGTGA,0.16
16,GTAGTCACGTGGGCTC,0.2
17,GTATGCACGTGGCGGT,0
18,AGGCACACGTGGGTGG,-0.08
19,TGACGCACGTGATGTT,0
20,TGTCGCACGTGGGAAT,-0.14
21,TTAGGCACGTGTCAGT,0.01
22,GAAAGCACGTGTTTGT,-0.13
23,TGCTACACGTGTGGGA,0.04
24,GACTTCACGTGTGATG,0.49
25,TGTGACACGTGCTGTG,-0.08
26,ATGTACACGTGGCTTT,-0.02

row,Sequence,relative binding free energy [kcal/mol]
1,TTGGACACGTGTCGTT,0.09
2,ATATGCACGTGGTGAG,-0.15
3,GGGTACACGTGGTGGC,0.15
4,GTGATCACGTGGTGAA,0.07
5,AATAGCACGTGTAAAG,0.13
6,AGGAGCACGTGTGACT,0.04
7,GGCAGCACGTGTGTGG,0.05
8,TGGAGCACGTGTTTGA,-0.09
9,GGACTCACGTGTGGCG,0.43
10,TTGTCCACGTGCTTTT,-0.04
11,GTAAACACGTGAATTG,0.27
12,AAGGTCACGTGGGGGC,0.03
13,GATAGCACGTGTATAG,0.02
14,TTACGCACGTGGTGTT,-0.21
15,CGATGCACGTGATGGT,0.02
16,TGTGACACGTGGAGAA,-0.06
17,TGGTGCACGTGTTTTG,0.07
18,GTGGCCACGTGAAGTG,0.24
19,TTTCTCACGTGTATAT,0.13
20,GTGTACACGTGGATGA,-0.01
21,GATTGCACGTGATTGT,0.25
22,GGTGACACGTGGTACT,-0.04
23,TAATGCACGTGAGTTA,0.1
24,GGATGCACGTGCGGGA,0.05
25,AGGAGCACGTGGAGGA,-0.09
26,TAGGTCACGTGAGGCT,0.34

row,Sequence,relative binding free energy [kcal/mol]
1,ATTGACACGTGGAGAG,-0.04
2,ATCCGCACGTGTGTGT,0
3,TGAGTCACGTGATGTT,0.22
4,TCTGTCACGTGATGTA,0.16
5,GCGGTCACGTGAAGGT,0.3
6,TTGGACACGTGCTGGG,0.08
7,GTTGGCACGTGGATAC,0.05
8,TTTTGCACGTGAACTT,0.26
9,AGTAACACGTGGTGTA,-0.11
10,CCGTTCACGTGGTGTG,0.09
11,TGCATCACGTGGTTAA,0.13
12,AACGTCACGTGGTATT,0.14
13,AGGGGCACGTGCTCGA,-0.14
14,GGAATCACGTGAAGGG,0.42
15,ATGAGCACGTGCTTTT,-0.12
16,TTTTGCACGTGGTTCT,-0.02
17,GCTGGCACGTGTAGTA,0.11
18,TGTTGCACGTGTTAAC,0.05
19,ATGTGCACGTGTAGTC,-0.11
20,GGGTACACGTGCGTAG,-0.11
21,CGAAACACGTGGTGTT,-0.01
22,AGTTACACGTGGTCGG,0.11
23,ATTTTCACGTGACGGA,0.41
24,TCATGCACGTGCGGGT,0.03
25,GGCAGCACGTGTGTAT,0.13
26,TGCGTCACGTGAGGGC,0.33

row,Sequence,relative binding free energy [kcal/mol]
1,AGTTCCACGTGTCGGG,0.2
2,CACGTCACGTGTTAGG,0.29
3,GGGCTCACGTGATGTA,0.33
4,GTATACACGTGTGTAC,0.16
5,GATAGCACGTGTGTTG,-0.03
6,TATCTCACGTGAGTGT,0.19
7,TTGTTCACGTGGCCGT,0.17
8,TGGTACACGTGGCATG,-0.02
9,TATTCCACGTGGAGTA,0.11
10,TGATTCACGTGTTTTC,0.36
11,AGGGTCACGTGCTTTA,0.15
12,TTATGCACGTGGGTGG,-0.04
13,GGAAGCACGTGGGAAT,-0.07
14,AAGGGCACGTGGGGGA,-0.16
15,AGGCGCACGTGGCAGG,-0.27
16,TGGTTCACGTGCACGT,0.12
17,CTTGGCACGTGGAGGG,-0.25
18,TGGCTCACGTGATGCG,0.2
19,TGTAACACGTGTTTAC,0.04
20,GTGGGCACGTGGGTCA,-0.08
21,TTTGGCACGTGAGTTT,0.22
22,TGGAGCACGTGGTGGA,-0.16
23,GGTTACACGTGTTACG,0.2
24,AGGATCACGTGAGTCG,0.47
25,TTAATCACGTGTGGAT,0.23
26,TTCCTCACGTGATGTT,0.41

row,Sequence,relative binding free energy [kcal/mol]
1,TAGGACACGTGACGGT,0.09
2,TGTCTCACGTGTGTTA,0.25
3,TATTGCACGTGGTAAA,-0.03
4,TTTGCCACGTGTGGTA,0.03
5,TTGTACACGTGAGATG,0.31
6,AGAGGCACGTGGACGG,-0.12
7,TCTATCACGTGATTGG,0.38
8,GTTGTCACGTGTTATA,0.2
9,TTTCGCACGTGGTCAT,-0.08
10,GTGGACACGTGCCTGT,-0.01
11,ATTATCACGTGTGAGA,0.17
12,TTGGCCACGTGTGTCG,-0.07
13,AGGGACACGTGGTGGG,-0.04
14,TTGAGCACGTGGTGCT,-0.19
15,TACGGCACGTGTTATA,-0.09
16,ATCGACACGTGAGTGG,0.14
17,TCTTACACGTGAGTTG,0.42
18,GTGTACACGTGTCTAG,0.19
19,ATCTTCACGTGTGCTT,0.28
20,AGTGACACGTGCTTTG,0.01
21,ATATTCACGTGGTAGG,0.22
22,TACATCACGTGGGTGG,0.06
23,AGTGTCACGTGACTGG,0.11
24,TAGAGCACGTGGGGTG,-0.21
25,GTGGTCACGTGTAAGC,0.18
26,CGGGTCACGTGGACTA,0.24

row,Sequence,relative binding free energy [kcal/mol]
1,TTTGCCACGTGGGGCT,-0.25
2,GGGATCACGTGGGCTG,-0.08
3,AGTTGCACGTGCGTAA,-0.13
4,TCTGGCACGTGTGTCG,-0.04
5,ATCGGCACGTGATTTG,-0.04
6,TGGAGCACGTGTGGTT,-0.02
7,TTAGGCACGTGAGGGA,0.19
8,TGCGTCACGTGTCTGG,0
9,GGGTGCACGTGTGGTC,0.01
10,AGTGCCACGTGTATGT,-0.09
11,TAAATCACGTGTGCGT,-0.02
12,TGCGACACGTGATAGG,0.15
13,ATCTGCACGTGTGGTA,-0.03
14,ATTGGCACGTGGTAAG,-0.19
15,TTGTGCACGTGGACAT,0.1
16,GAGTACACGTGGTTGG,0.11
17,CGCAGCACGTGGGTGA,-0.17
18,TAGGTCACGTGTGCAG,0.12
19,AGGTGCACGTGATGTT,0.11
20,TGCGGCACGTGGGGTG,-0.26
21,AGTACCACGTGGTGAT,-0.12
22,TGGCTCACGTGTCGGT,0.19
23,TTGGTCACGTGGGGCG,0.02
24,TGTTCCACGTGCGTGG,-0.18
25,TATGTCACGTGAAAGG,0.4
26,TCTTCCACGTGTTGGT,0.05

row,Sequence,relative binding free energy [kcal/mol]
1,TTTGGCACGTGACCGG,-0.08
2,TTTGACACGTGTTGTG,0.06
3,GGTTACACGTGTTATG,0.26
4,TAATTCACGTGTAGGT,0.16
5,TTGTTCACGTGAAGAA,0.42
6,ATTAGCACGTGTCGGG,-0.16
7,TTGGGCACGTGAATGC,0.13
8,GCGTCCACGTGGGTGT,-0.13
9,TTTTGCACGTGTATCG,0.21
10,TTGTTCACGTGGTATG,0.18
11,GAGAGCACGTGGTGTG,-0.05
12,GAGTACACGTGGAAGG,0.19
13,AGTTTCACGTGAATAG,0.44
14,GTCAACACGTGGTAGG,-0.09
15,GGAGTCACGTGGTTGA,0.13
16,TTAGTCACGTGGTATG,0.11
17,GTGACCACGTGAGTGT,0.35
18,CTGGTCACGTGAGGTC,0.17
19,ACGGTCACGTGTTTGT,0.08
20,GAGATCACGTGGTTTA,0.31
21,GTTGTCACGTGGTATC,0.1
22,TGTTTCACGTGTGATT,0.42
23,TGTTTCACGTGCGTGC,0.11
24,GAGTCCACGTGGGGAG,-0.04
25,TTTGTCACGTGGGTGC,-0.06
26,ATGAGCACGTGTTTAG,-0.13

row,Sequence,relative binding free energy [kcal/mol]
1,TGATGCACGTGTCGAG,0.05
2,ACGGTCACGTGGAATG,0.12
3,AGTTGCACGTGTGCTG,0.07
4,TGTGTCACGTGACTGC,0.08
5,TTTACCACGTGTCGGT,0.1
6,TGGTTCACGTGTGCAA,0.45
7,TGTGGCACGTGGTTAA,-0.16
8,AGCCGCACGTGAGGGT,0.07
9,AAAATCACGTGTATAT,0.3
10,TAATGCACGTGGTGAT,-0.07
11,ATGAGCACGTGTTTCT,0
12,TAGTTCACGTGAAGCG,0.3
13,CTTGGCACGTGTAGTG,-0.15
14,CATATCACGTGGGAGT,0.2
15,CTGAACACGTGTAGGG,0.09
16,ATGGACACGTGAGTTA,0.28
17,TAGGGCACGTGAATTG,0.15
18,AATTTCACGTGTGTGC,0.23
19,GTAAGCACGTGTTGCT,-0.12
20,GTGCGCACGTGGCATG,0.01
21,CGTACCACGTGTTGGT,-0.01
22,TACTGCACGTGTGGAT,-0.01
